# Among all 340,000 compounds or so, about 6,900 (2%) were called active. Rule as the data show it: active = inhibition above about 30%; inactive = below that, where a call was filed. Only a part is listed here, and it is no random draw. Where no call is shown, the source filed none.
# Target: D(2) dopamine receptor (Homo sapiens) (UniProt P14416)
# Test: HTS Assay for Allosteric Antagonists of the Human D2 Dopamine Receptor: Primary Screen for Antagonists; also: 0% is about no effect
# Details: HEK293 TREx D2 cells, calcium flux, dopamine EC80; at 10 µM; stronger effect = higher value
# Outline: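 In this primary screen, negative modulation is detected by tracking calcium flux after an EC80 dopamine challenge in inducible HEK293 T-REx D2 cells preexposed to test compound for 180 s.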
# Sequence of UniProt P14416 (P14416 whole entry, looked up): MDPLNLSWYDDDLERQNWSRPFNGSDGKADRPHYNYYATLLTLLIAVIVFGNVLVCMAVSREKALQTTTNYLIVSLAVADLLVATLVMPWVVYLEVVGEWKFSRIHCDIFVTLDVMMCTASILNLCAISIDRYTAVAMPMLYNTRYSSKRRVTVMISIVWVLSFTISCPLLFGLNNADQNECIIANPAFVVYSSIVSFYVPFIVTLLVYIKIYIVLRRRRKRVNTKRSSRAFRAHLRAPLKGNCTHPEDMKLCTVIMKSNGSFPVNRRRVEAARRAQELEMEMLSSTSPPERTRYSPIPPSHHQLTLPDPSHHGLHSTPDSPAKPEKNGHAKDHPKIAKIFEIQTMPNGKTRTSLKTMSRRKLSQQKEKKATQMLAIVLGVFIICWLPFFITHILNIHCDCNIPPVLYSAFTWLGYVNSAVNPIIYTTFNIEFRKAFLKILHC
row,SMILES,inhibition
1,CCCOC(=O)CSc1ncnc2sc3c(c12)CCC(C)C3 (stereo not given),15.2%
2,COc1cccc(NC(=O)N2CCN3CCCCC3C2)c1 (stereo not given),2.18%
3,COc1cc(OC)cc(N2C(=O)N(CC(=O)c3ccc(F)cc3)c3ccccc3S2(=O)=O)c1,-10.1%
4,COc1ccc(CN2CCc3nc(SCC(=O)Nc4cc(C)cc(C)c4)[nH]c(=O)c3C2)cc1,2.02%
5,COc1ccc(-c2noc(Cn3c(=O)c4ccccc4n(CC(=O)Nc4cccc(OC)c4)c3=O)n2)cc1,7.17%
6,COc1ccccc1NC(=O)c1sc2nc(N3CCOCC3)c3c(c2c1N)CC(C)(C)OC3,13%
7,COc1ccc(-c2noc(CSc3nnc(C)n3-c3ccc(OC)cc3)n2)cc1,1.55%
8,Cc1cccc(NC(=O)c2sc(-n3nc(C)c(Cc4ccc5c(c4)OCO5)c3C)nc2C)c1C,-0.998%
9,Cc1ccc(Cn2c(SCc3ccc(C(=O)N4CCCCCC4)cc3)nc3ccncc32)cc1,-4.14%
10,O=C(CN1CCN(C(=O)c2ccco2)CC1)NCc1ccc(Cl)cc1,active: 32.4%
11,O=C(O)COc1ccc2occ(C(=O)c3ccccc3)c2c1,active: 37.5%
12,CNC(=O)Cn1cc(S(=O)(=O)Cc2ccccc2F)c2ccccc21,-0.229%
13,COC(=O)c1c(-c2cccs2)csc1NC(=O)COc1c(C)ccc(C)c1C,-8.34%
14,CCOc1ccc(CCNC(=O)c2cnc3sc(N4CCC(C)CC4)nn3c2=O)cc1,6.47%
15,CCCCCSc1nc2sc3c(c2c(=O)n1-c1ccccc1)CCN(C(C)=O)C3,20.7%
16,Cc1nn(C(=O)c2ccccc2F)c(C)c1S(=O)(=O)N1CCCCCC1,-12.1%
17,COc1ccc(-c2oc3ncn4nc(COc5c(C)cccc5C)nc4c3c2-c2ccc(OC)cc2)cc1,21.3%
18,CCOc1ccccc1NC(=O)N1CCc2cc(S(=O)(=O)N3CCC(C)CC3)ccc21,3.69%
19,COc1ccc(-c2noc(-c3ccc(N4CCN(C)CC4)c([N+](=O)[O-])c3)n2)cc1OC,3.38%
20,Cc1ccccc1-c1nnc(CN2CCN(c3ccccn3)CC2)o1,-2.4%
21,Cc1cc(Br)ccc1NC(=O)C1CCN(S(=O)(=O)c2cccc3nsnc23)CC1,6.2%
22,CCOC(=O)c1ccc(NC(=O)N2CCOc3ccccc32)cc1,-14%
23,Cc1ccc2c(c1)-c1nc(-c3ccc4c(c3)NC(=O)CO4)cc(-c3ccc(F)cc3)c1CO2,-0.979%
24,Cc1nc2c(C(=O)NCCc3ccc(Cl)cc3)c[nH]n2c(=O)c1Cc1ccc(Cl)cc1,6.73%

row,SMILES,inhibition
1,COc1ccccc1C(=O)Nc1c(C(=O)N(C)Cc2ccccc2)sc2nc(C)c(Cl)c(C)c12,8.14%
2,O=C(CSc1nnc(-c2ccc(O)cc2)o1)c1ccc(Br)cc1,-9.11%
3,COc1ccc(C(=O)NCc2ccccc2CN2CCCC2)cc1S(=O)(=O)N1CCOCC1,active: 45.2%
4,CCCCOc1ccc(CN2C(=O)C(=O)c3cc(Br)cc(C)c32)cc1OC,0.309%
5,CCOc1ccccc1CNC(=O)C1CCCN(c2ncnc3onc(-c4ccc(F)cc4)c23)C1 (stereo not given),-2.29%
6,Cc1ccc(CN2CCc3nc(N4CCN(c5ccccc5F)CC4)ncc3C2)cc1C,18.9%
7,Cc1cccc(C)c1-n1ncc(C(=O)Nc2ccc3c(c2)OCO3)c1C1CCN(C(=O)OC(C)(C)C)CC1,-8.52%
8,COc1cccc(-c2cc(C(F)(F)F)nc(NCCc3ccccc3)n2)c1,-10.8%
9,CC(C)(Oc1ccc(Cl)cc1)C(=O)N1CCN(c2ccccn2)CC1,active: 43%
10,OC(COc1c(F)cc(Br)cc1F)CN1CCN(c2ccc(F)cc2)CC1 (stereo not given),active: 70.9%
11,COc1ccccc1CCNC(=O)c1ccc2c(c1)c(C)c(C)n2Cc1ccc(Cl)cc1,-2.98%
12,CCCCc1ccc(NC(=S)NCCO)cc1,active: 30.9%
13,CC1CN(Cc2csc(-c3ccc(Cl)cc3)n2)CC(C)O1 (stereo not given),active: 36.9%
14,O=C(NCc1ccccc1Cl)C1CCCN(C(=O)c2cnn(-c3ccccc3)c2-n2cccc2)C1 (stereo not given),6.28%
15,COc1ccc(-n2c(=O)c3c4c(sc3n(Cc3ccccc3Cl)c2=O)CCC4)c(OC)c1,0.109%
16,O=C(CCN1C(=O)CSc2ccccc21)Nc1ccc(OC(F)(F)F)cc1,active: 51.4%
17,COc1cccc(CNC(=O)CN(C)S(=O)(=O)c2ccc3[nH]c4c(c3c2)CCCC4)c1,-10.6%
18,Cc1cccc(OCC(=O)Nc2ccccc2OCc2cc(=O)n3ccccc3n2)c1,10.8%
19,Cc1cccc(-c2nc3c(c(SCc4ccccc4Cl)n2)Cc2c(CO)cnc(C)c2O3)c1,-15.8%
20,COc1cc(Cl)c(C)cc1NC(=O)c1cc2c(Cl)nc3ccc(C)cc3c2s1,-15%
21,COc1cc2c(cc1OC)CN(C(=O)Nc1ccccc1Cl)CC2,active: 34.7%
22,Cc1ccc(NS(=O)(=O)c2ccc3c(c2)CC(C)N3C(=O)C2CCC2)cc1Cl (stereo not given),-6.64%
23,CCOc1ccccc1NC(=O)c1c(NC(=O)C(C)Oc2ccc(Cl)cc2)sc2c1CCCCC2 (stereo not given),-2.84%
24,CC(C)CC1N=C2c3ccccc3N=C(SCC(=O)NCCc3ccc(Cl)cc3)N2C1=O (stereo not given),10.8%

row,SMILES,inhibition
1,COc1ccc(-c2nc3cc(C)ccn3c2NC(=O)c2ccc(C)c(C)c2)cc1,-9.88%
2,CC(C)CCn1c(=O)c2sccc2n2c(CCCC(=O)NC(C)C)nnc12,26.7%
3,CCn1cc(C(=O)N2CCN(c3ccc(F)cc3)CC2)c(=O)c2cc(S(=O)(=O)N(C)C3CCCCC3)ccc21,-4.1%
4,CCOC(=O)C1=C(CN2CCCCC2)NC(=O)NC1c1cc(C)ccc1C (stereo not given),3.22%
5,COc1ccccc1N1CCN(C(CNC(=O)C(=O)NCc2ccc(C)cc2)c2cccnc2)CC1 (stereo not given),19.9%
6,CC(C)(C)c1ccc(OCCn2cc(C(=O)c3ccco3)c3ccccc32)cc1,-2.61%
7,CCc1cccc(NC(=O)C2CCCN(S(=O)(=O)c3cccs3)C2)c1 (stereo not given),2.97%
8,Cc1ccc(C2=CC(c3ccccc3F)n3c(nc4ccccc43)N2)cc1C (stereo not given),-17.7%
9,Nc1ccccc1NC1=CC(=O)CC(c2ccco2)C1 (stereo not given),active: 30.9%
10,CN(C)c1ccc(-n2c(CCC(=O)O)ccc2-c2ccccc2)cc1,8.63%
11,COc1ccc(C2=NC(c3ccncc3)=Nc3ccc(Br)cc3N2)cc1,12.3%
12,COc1ccc(CC(=O)NCc2ccc3c(c2)CCN3C(=O)c2ccccc2)cc1OC,6.26%
13,Cc1oc(-c2cccc(Cl)c2)nc1CN1CCC(C(=O)NCCCN2CCN(c3ccc(F)cc3)CC2)CC1,-5.97%
14,O=C(CSc1nc2c(c(=O)[nH]1)CCC2)Nc1ccccc1C(F)(F)F,4.78%
15,COc1ccc(S(=O)(=O)c2c(C)c(NS(=O)(=O)c3ccccc3)cc(C)c2O)cc1,8.25%
16,COc1ccc(Cn2cc(C(=O)c3ccc(C)cc3)c(=O)c3cc(OC)c(OC)cc32)cc1,-1.47%
17,O=C(CCC(=O)N1CCOc2ccc(Cl)cc21)NCc1ccccc1,active: 36.7%
18,Cc1ccccc1Nc1c(-c2ccc(Cl)s2)nc2cccc(C)n12,14.7%
19,O=[N+]([O-])c1ccc(/C=N/NC(=S)Nc2ccc(Cl)cc2Cl)s1,active: 45.4%
20,COc1cc(C(c2c(C)[nH][nH]c2=O)c2c(C)[nH][nH]c2=O)ccc1OC(=O)c1cccc(C)c1,16.7%
21,O=C(c1ccc2c(c1)CCCC2)N1CCN(c2nc3c(F)cccc3s2)CC1,-20.3%
22,CCOC(=O)C1CCCCN1S(=O)(=O)c1csc(C(N)=O)c1 (stereo not given),12.2%
23,CCn1cc(C(=O)NCc2ccccc2)c(=O)c2cc(S(=O)(=O)N3CCc4ccccc4C3)ccc21,12.4%
24,O=c1c(-c2ccc(Cl)cc2)c(C(F)(F)F)oc2c(CN3CCCCC3)c(O)ccc12,-12.2%

row,SMILES,inhibition
1,CCCC(CCC)C(=O)Nc1cc(-c2cn3cccnc3n2)ccc1OC,0.774%
2,CCc1ccc(N2C(=O)CSC23C(=O)N(Cc2ccc(C)cc2)c2ccccc23)cc1 (stereo not given),5.64%
3,Cc1ccc(-c2cc(NC(=O)COc3ccc(Cl)cc3C)on2)cc1,-7.55%
4,CCOc1ccc(CCNC(=O)c2cc3c(s2)-c2ccccc2OC3)cc1OCC,-20.9%
5,O=C(NCc1ccc(Cl)cc1)C1CCN(S(=O)(=O)Cc2ccccc2)CC1,6.87%
6,COc1ccc(-c2cc(C(F)(F)F)nc(SCC(=O)N3CCC(C)CC3)n2)cc1,4.88%
7,COc1cccc(OC)c1OCC(O)CN1CCN(c2ccccc2)CC1 (stereo not given),active: 115%
8,Cc1ccc(CNC(=O)C2CCN(S(=O)(=O)c3cc(-c4noc(C)n4)ccc3C)CC2)cc1,9.51%
9,Cc1c(Cl)cccc1-n1nc(C)c2c(C(=O)NCc3ccccc3)cc(C3CC3)nc21,-6.53%
10,Cc1nc2c(-c3ccccc3)c(C)nn2c(C)c1CCC(=O)NCc1ccc(F)cc1,8.11%
11,Cn1c(=O)oc2cc(S(=O)(=O)Nc3ccccc3O)ccc21,-1.15%
12,CN(Cc1ccccc1)C(=O)CN1CCN(C(c2ccccc2)c2ccccc2)CC1,active: 50.6%
13,CC(CNC(=O)Cc1ccc(NC(=O)N2CCSc3ncccc32)cc1)c1ccccc1 (stereo not given),6.61%
14,COC(=O)c1scc(-c2ccc(C)cc2)c1S(=O)(=O)Nc1ccc(N(C)C)cc1,-3.89%
15,COc1ccc(-c2cn3c(n2)sc2cc(C(=O)Nc4cccc(OC)c4)ccc23)cc1,13.1%
16,Cc1ccccc1NCc1cccn1-c1nnc(N2CCC(C)CC2)s1,6.91%
17,CCOC(=O)C1=C(CN2CCN(c3ccccc3F)CC2)NC(=O)NC1c1ccc(Cl)cc1 (stereo not given),7.73%
18,O=C(NC1CC2CCC(C1)N2Cc1ccccc1)c1cccc(F)c1 (stereo not given),active: 71.5%
19,Cc1ccc(-n2c3c(c(=O)[nH]c2=O)C(NC(=O)c2ccccc2C)(C(F)(F)F)C(=O)N3)cc1 (stereo not given),-4.11%
20,COc1cccc(/C=C/c2onc(C)c2S(=O)(=O)N2CCC(C(=O)N3CCC(C)CC3)CC2)c1,2.05%
21,COc1ccccc1N1CCN(C(=O)CSc2n[nH]c(-c3ccccc3)n2)CC1,1.69%
22,Cc1cc2ccccc2n1-c1ccc(C(=O)N2CCC(C(=O)NCc3ccccc3Cl)CC2)s1,-2.34%
23,CN1CCc2c(sc(NC(=O)c3ccc(C(=O)c4ccccc4)cc3)c2C(N)=O)C1,active: 37.1%

# Reference: PubChem BioAssay AID485344 (National Center for Advancing Translational Sciences (NCATS), 2010)
